Reference: the supplement of paper PMC11417369
± gives the standard deviation of the averaged measurements. Some of the results follow.

test system: PfAP2-EXP AP2 domain (GST-tagged); assay: gcPBM binding intensity (ln(normalized median fluorescence intensity)); higher = stronger DNA binding
In short: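 DNA-binding domains from P. falciparum, fused to GST and produced in E. coli, were put on an Agilent 4 × 180k double-stranded probe array for 1 h in 1× PBS holding 1% milk, 0.2 mg/ml BSA, 0.5% salmon testes DNA and 0.03% Triton X-100. Probes were primer-extended, 36 bp long and drawn from intergenic genomic regions, with negative controls included. After Alexa488 anti-GST antibody detection and a 488 nm scan, binding intensity was set as the highest Masliner-normalised natural-log median intensity across replicate spots of either probe orientation.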

Row | Sequence | gcPBM binding intensity (ln)
1 | GTATTTTAATATAAATGTACATAAATGTTATATATA [XGTACX_site3475] | 8.35 ± 0.3
2 | AATATTGTATATAATAAACACACAATATTAAAAATA [CACACA_site8262] | 8.4 ± 0.4
3 | CTTTAAACCCTGAACACACACAAATACAGACAAAAA [CACACA_site247] | 8.71 ± 0.54
4 | AGGATATATAATTAAGTGCATTAATTCAAAATAAAA [GTGCAC_site9702] | 8.74 ± 0.12
5 | CATATATAAATCATGTGTACGTATTGAGTATCTACT [XGTACX_site6278] | 8.66 ± 0.18
6 | TTATTATTTTATAACACACACATATATATTATATCT [CACACA_site1434] | 8.48 ± 0.31
7 | ATAAGATATGTATATACACACATTTATTTACCTATA [CACACA_site7521] | 8.66 ± 0.38
8 | ATATGACTTAAATATGTGCGCATTTTTTTTTTTTTT | 8.64 ± 0.38
9 | ATATTTTCTAATCAATGTACTTATTCTACACATTAA [XGTACX_site5774] | 8.69 ± 0.37
10 | TATATTTGGAAACACACACACAAAAAAAAAAAAAAA [CACACA_site2474] | 8.19 ± 0.43
11 | CACCTGCACGATTGCACACAAATATGTTTTGAAGAT [CACACA_site2103] | 8.91 ± 0.042
12 | ACTACATAAAATGACACACACAAACTTTAAAATTTA [CACACA_site3474] | 8.41 ± 0.59
13 | ATATTTTATGTAAAGGTGCAAAACAACATTAAAAAA | 9.22 ± 0.11
14 | AACACATACAGACACACACACAAAAAAAAAAAAAAA [CACACA_site6322] | 8.27 ± 0.49
15 | TAAAACATGTTTTTATATATTATTATTATATTTATA [XGTACX_negctrl_site8] | 8.38 ± 0.4
16 | ACCCAATTTTTTAGTACACACATATAAATATATAAA [CACACA_site4944] | 8.68 ± 0.17
17 | AAATAACTCATGGGTTGTACTTAAAAAAAAAAAGAT [XGTACX_site4168] | 8.49 ± 0.75
18 | AAACCTTTAGAAAATCGTACAAAACATAACCACCTA [XGTACX_site1098] | 8.81 ± 0.61
19 | ATTTTTTTTTTTTGTTTTTTCTTACAAATTAAATGA [CACACA_negctrl_site1457] | 8.38 ± 0.49
20 | AAACAAAAGTAGAAGGTAGAGTATTTTATATTTAAA [GTGCAC_negctrl_site503] | 8.39 ± 0.45
21 | CTCTTGTCATTTTGCACACACACATGGATAGGTTAT [CACACA_site5655] | 9.14 ± 0.23
22 | TTTTTTTTTTTTCACGTGCACTATACATATAAGTAA | 9.01 ± 0.13
23 | ATATATACATTTCTATGTACATATGTATATATGTAT [XGTACX_site1522] | 8.54 ± 0.28

Row | Sequence | gcPBM binding intensity (ln)
24 | ATAAAAGAAAACAATAGTACTTTAGTTTTTCTTTTT [XGTACX_site5686] | 8.36 ± 0.33
25 | TTAATCTAGAGAAATTGTACATTTTATTAACACAAT [XGTACX_site1190] | 8.26 ± 0.33
26 | TACCAAAATAGACACACACACAAAATATGTAAATAT [CACACA_site6963] | 8.59 ± 0.45
27 | TATAAATAAATTTATACACACACACCCATATATATA [CACACA_site8183] | 8.88 ± 0.2
28 | ATACATATATATATATGTACACACATTAATAAAAAA [XGTACX_site6874] | 8.6 ± 0.42
29 | TATATTTTAGTTAATGCATGTGTGCATCCATTTAAA [TGCATGCA_site887] | 8.42 ± 0.17
30 | AAAAAAAAAAGACACACACACAAATACAAATGGTAA [CACACA_site6906] | 8.68 ± 0.37
31 | TAAAATTAGGAAATTGCACACAAAAAAAAACATATT [CACACA_site9349] | 8.69 ± 0.46
32 | TTTGTTATATTTAATACACACATATTATAAACCCAT [CACACA_site3716] | 8.59 ± 0.42
33 | ATAAAGCCATACAATACACACATTTTACATGGCTGT [CACACA_site5756] | 8.59 ± 0.48
34 | AGAAGAAAAGAAATATGTACATAAACGTCTGAACTA [XGTACX_site1699] | 8.86 ± 0.54
35 | ATAACAAATATGATAGCATGCTACATATTACAACTT [TGCATGCA_site524] | 8.86 ± 0.52
36 | TGATTAATAGCAGGTAGTACTATAATAATATAAATA [XGTACX_site2776] | 8.61 ± 0.28
37 | GTTCCATATATTACATGTACATATTTTTACATTTAA [XGTACX_site660] | 9.31 ± 0.37
38 | TGACATAAATTTAATACACACACAAAGAAAAAAAAA [CACACA_site9354] | 8.72 ± 0.45
39 | TTTAAAAAAAAAAAAAAAAATTCTACATGTAATTTA [CACACA_negctrl_site1205] | 7.92 ± 0.38
40 | ATATATCACATGAACATTAAAAAAAAAAAAGAGGGG [TGCATGCA_negctrl_site187] | 8.48 ± 0.38
41 | GGAACATATGAACTCACACACATTTTCACTTAAATA [CACACA_site3684] | 8.52 ± 0.4
42 | ATATCACATTCCACGGTACACACTAATAGAAAAATC [CACACA_site9204] | 8.88 ± 0.53
43 | TTTATACAATTAGACACACACAAAAAGTATAAATAT [CACACA_site6637] | 8.84 ± 0.55
44 | AATATTTATAAATTTACACACACACCGGTGAACATA [CACACA_site8579] | 8.98 ± 0.48
45 | TAAAATGATAAATGAATGTGATCATTTTATAAAATA [CACACA_negctrl_site674] | 8.33 ± 0.42
46 | TTTAAACTAGAACAAGTGCAGATATGTATAATAATA | 8.6 ± 0.32

Row | Sequence | gcPBM binding intensity (ln)
47 | TTTTATTTTGGAACGTGTACATATAATTATTTATTG [XGTACX_site8094] | 8.61 ± 0.29
48 | ATTTATTTTTATCAAGCATGCATAAAAAATAAATTA [TGCATGCA_site440] | 8.88 ± 0.39
49 | AAGAAAAGATATATATATAAATATATATATATATAT [TGCATGCA_negctrl_site353] | 9.91 ± 0.27
50 | TATTTTTAGAAAATAAAGAAGGAGAATTGAAAATAT [CACACA_negctrl_site361] | 8.62 ± 0.43
51 | AGGTAGTTCTGTATCACACACATATAAATATAAATA [CACACA_site7110] | 8.48 ± 0.4
52 | ATATTACTAATTAATGGTACACGTTATAATAAACTA [XGTACX_site7051] | 8.53 ± 0.43
53 | GCATAAAATATGATCGCACACTGTTTAAAATACTTA [CACACA_site828] | 8.41 ± 0.29
54 | AAAATATATACAAGCAAACACACGTAATATATATTA [CACACA_site2152] | 8.73 ± 0.5
55 | ATACCTTCTTCATTCACACATATACGTAAAATGTTC [CACACA_site5657] | 9.01 ± 0.48
56 | AAGGATTACAAAAAAAGTACAAATGGATTTTTTCCC [XGTACX_site8905] | 8.4 ± 0.26
57 | AAAAAAATTCTTGGCGCACACACTTTAAAAATTAAA [CACACA_site597] | 8.52 ± 0.17
58 | CTTACAAATAAACAACGTACTTATTCGAATTATGCT [XGTACX_site2431] | 8.62 ± 0.58
59 | CATACAGACGAACACACACACATATAAATATAAATA [CACACA_site6443] | 8.74 ± 0.55
60 | TATAATAAAATTGGTAGTACATTAATTTATGTATAG [XGTACX_site3059] | 8.43 ± 0.29
61 | TATTATTTTTTTTTTTGTACATATATGTATATATAT [XGTACX_site8471] | 8.46 ± 0.44
62 | AAATATTATATATATACACACACACCGGCATGCACA [CACACA_site7916] | 8.99 ± 0.49
63 | AACCACATGGTGTAATGTACATTACCTTAACAATAA [XGTACX_site3055] | 8.88 ± 0.49
64 | AAATGCGCCATGTGTACACATATATATATATATATA [CACACA_site4649] | 10.3 ± 0.33
65 | TTAAATAAGTTCTTCACACATATATATATATATATA [CACACA_site4742] | 10.2 ± 0.31
66 | TACATATATAAAAATTGTACACTTCATAAGAAAAAA [XGTACX_site4347] | 8.68 ± 0.3
67 | AAAATTTTTTAACACTGTACTTGTAATATTAAAACT [XGTACX_site8369] | 8.54 ± 0.45
68 | GTTTTAAAATTAAATATTATGGCATAATTCAAGAAA [GTGCAC_negctrl_site721] | 8.4 ± 0.33
69 | ATTCCCTTAAGAAACTGTACAAAACTTTCTTCGATT [XGTACX_site775] | 8.56 ± 0.54

Row | Sequence | gcPBM binding intensity (ln)
70 | TATACATAAATTATATGTACTGAAAATACATAATTA [XGTACX_site3626] | 8.23 ± 0.26
71 | GTGTGTGTATATATTTGTACATATATTTAAACATAT [XGTACX_site1074] | 8.96 ± 0.16
72 | GGTAGGTGGATATATACACACATATATTATAGATAT [CACACA_site7021] | 8.56 ± 0.49
73 | ATCGAGAAAAATAAAATAATACAATTTCTTTAAATA [XGTACX_negctrl_site162] | 7.97 ± 0.35
74 | CACAGATATATACATACACACATATATACACATATA [CACACA_site6323] | 8.58 ± 0.38
75 | AAAAAAAAAAGAACCCGTACATAAATAATATATATA [XGTACX_site164] | 8.88 ± 0.27
76 | TTTTTTTTTTCTTAGGTGCAAAAAATAAGTATATAT [GTGCAC_site9394] | 8.47 ± 0.071
77 | TTAATTACATGTTATTGTACGTATTTTCTATCTATC [XGTACX_site844] | 8.94 ± 0.56
78 | TAAAAAATAAAATAATGTACATATGAATTATATATT [XGTACX_site8398] | 8.47 ± 0.45
79 | TTTTTTTTGTATTAATGTACATATAACTTTTTTTTT [XGTACX_site7903] | 8.48 ± 0.47
80 | AAAAAAAAAAAAGAAACACACACATTTGTATATAAT [CACACA_site8648] | 8.52 ± 0.57
81 | GAAACATAAAAATATATTGAAATAGTATCATGGGTA [CACACA_negctrl_site352] | 8.58 ± 0.42
82 | TATAGTTATATTAGAAGTACTTCATTTTAACATATT [XGTACX_site7101] | 8.42 ± 0.3
83 | TAAACCAAACAATTATGTATAAGATGTATATATATA [GTGCAC_negctrl_site438] | 9.33 ± 0.099
84 | AAATTCTTAACCCAACGTACATATAATAAATTCTTA [XGTACX_site8538] | 8.5 ± 0.61
85 | CATTATAAGAAACACACACACATATATATATATATA [CACACA_site1051] | 10.2 ± 0.47
86 | AAAAAGAAGAATATATGTACACAAAATTTATGAGTT [XGTACX_site8609] | 8.71 ± 0.46
87 | AAAAAAAAAAATATATTATTTTACTTGTTTATTTTA [CACACA_negctrl_site1447] | 8.03 ± 0.34
88 | GTATGTATATATGTATGTACTTATGTATCATTATTA [XGTACX_site2438] | 8.35 ± 0.26
89 | TAATATTTATGTTAATGTACAAAAAAACAAAACAAA [XGTACX_site301] | 8.66 ± 0.37
